Test results taken from patent US20260234276A1 (DOMAIN THERAPEUTICS, published 2026).

Key:
streptavidin = biological target: T1, streptavidin (UniProt P22629 in part, limits assumed); experiment: ELISA, soluble Fab on streptavidin-coated control well without peptide
T1 construct: control well without peptide
Method: (§1) The wells of a microtiter plate were coated with 200 ng streptavidin protein in 100 μL Coating Buffer (0.1 M NaHCO₃, pH 8.6), and then incubated overnight at 4° C. For negative control, the wells were coated with PBS to determine non-specific binding. After shaking out the coating solution, the wells were washed three times with washing buffer (0.1% Tween 20-PBS). To prevent non-specific binding, 200 μL Blocking Buffer (3% BSA-PBS) was adding and incubated for 2 h at 37° C. After shaking out the blocking buffer, the wells were incubated with 50 ng biotinylated target peptide (SEQ ID NO: 420; see Example 10) in 100 μL Blocking Buffer for 1 h at 37° C. The control well was incubated with only 100 μL Blocking Buffer for 1 h at 37° C. After shaking out the biotinylated target peptide or buffer solution, the wells were washed 3 times with the washing buffer (0.1% Tween 20-PBS). Then 100 μL supernatant containing soluble Fab were added and incubated for 2 h at 37° C. Following three washes with washing buffer (0.1% Tween 20-PBS) for 3 times, 100 μL/well HRP conjugate of mouse anti-Flag tag mAb (Sigma A8592, 1:5000) diluted in Blocking Buffer were added and incubated for 1 h at 37° C. After washings, 3,3′,5,5′-tetramethylbenzidine (TMB) (Sigma) were added for 5 to 30 min at room temperature. The reaction was stopped by adding 50 μL/well of 1 M H₂SO₄.

[1] = biological target: T2, biotinylated CCR8 peptide (human, N-terminal biotin); experiment: ELISA, soluble Fab on biotinylated CCR8 peptide captured on streptavidin
T2 construct: first 34 residues of human CCR8 plus a C-terminal K; also called biotinylated target peptide
Method: as §1

Chain of streptavidin (P22629 37-163 limits assumed): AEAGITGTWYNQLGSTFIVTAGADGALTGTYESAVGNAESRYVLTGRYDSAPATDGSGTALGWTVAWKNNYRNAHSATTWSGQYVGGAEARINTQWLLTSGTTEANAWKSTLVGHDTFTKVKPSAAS

B1: 3-58 (Fab, V domains shown)
VH: [about 100 residues left out here]PVGGDSGFDYWGKGTLVTVSS
VL: LPVLTQPPSASGTPGQRVTISCSGSSSNIGSNYVYWYQQLPGTAPKLLIYSNNQRPSGVPDRFSGSKSGTSASLAISGLQSEDEADYYCAAWDASLNGRVFGGGTKLTVLG
notes: soluble Fab from phage display library huFabL-4, Flag tag
Optical Density (streptavidin): 0.1 OD450
Optical Density [1]: 2.25 OD450
